The text below walks through data of the supplement of paper PMC4604168 (melanoma cell lines).

Structures are written as SMILES. Some of the results follow. Single values are uncertain, as repeats are few or missing.
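Note: cells treated in 1,536-well plates, then fixed and DAPI-stained, with nuclei counted from automated high-throughput microscope images.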

For the experiment, the system named is COLO829. Kind of experiment: cell count relative to DMSO control; melanoma cells; higher = more viable cells. The following applies: library dose: standard library concentration; 72 h.
Regarding `NC(=O)c1ccc(N(C(N)=O)c2c(F)cccc2F)nc1-c1ccc(F)cc1F` + CS(=O)(=O)CCNCc1ccc(-c2ccc3ncnc(Nc4ccc(OCc5cccc(F)c5)c(Cl)c4)c3c2)o1 [lapatinib] (first compound 2 µM, partner dose 4 µM), the cell count came to 96.3%.
Turning to `NC(=O)c1ccc(N(C(N)=O)c2c(F)cccc2F)nc1-c1ccc(F)cc1F` + C[C@]1(O)C[C@@H](c2nc(-c3ccc4ccc(-c5ccccc5)nc4c3)c3c(N)nccn32)C1 [OSI906] (first compound 2 µM, partner dose 2 µM), the cell count turned out to be 120%.
Regarding `CC(C)(C)c1cnc(CSc2cnc(NC(=O)C3CCNCC3)s2)o1` + c1cc(-c2cnn3cc(-c4ccc(OCCN5CCCCC5)cc4)cnc23)ccn1 [Dorsomorphin] (first compound 0.05 µM, partner dose 2 µM), the cell count was found to be 45.5%.
Then `NC(=O)c1ccc(N(C(N)=O)c2c(F)cccc2F)nc1-c1ccc(F)cc1F` + Cc1cc(Nc2cc(N3CCN(C)CC3)nc(/C=C/c3ccccc3)n2)n[nH]1 [ENMD2076] (first compound 2 µM, partner dose 0.2 µM), with 90.8%; and `NC(=O)c1ccc(N(C(N)=O)c2c(F)cccc2F)nc1-c1ccc(F)cc1F` + Cn1cncc1[C@@](N)(c1ccc(Cl)cc1)c1ccc2c(c1)c(-c1cccc(Cl)c1)cc(=O)n2C [tipifarnib] (first compound 2 µM, partner dose 0.05 µM), with 84.7%.
`NC(=O)c1ccc(N(C(N)=O)c2c(F)cccc2F)nc1-c1ccc(F)cc1F` + Cn1c(Nc2ccc(C(F)(F)F)cc2)nc2cc(Oc3ccnc(-c4ncc(C(F)(F)F)[nH]4)c3)ccc21 [CHIR265] (first compound 2 µM, partner dose 0.4 µM) yielded a cell count of 72.4%.
`NC(=O)c1ccc(N(C(N)=O)c2c(F)cccc2F)nc1-c1ccc(F)cc1F` + C=CCNC1=C2C[C@@H](C)C[C@H](OC)[C@H](O)[C@@H](C)/C=C(\C)[C@H](OC(N)=O)[C@@H](OC)/C=C\C=C(/C)C(=O)NC(=CC1=O)C2=O [Tanespimycin] (first compound 2 µM, partner dose 0.01 µM) registered a cell count of 80.2%.
For the compound `CCCCCCCCc1ccc(CCC(N)(CO)CO)cc1` [fingolimod] + O=C(O)c1ccc2c(c1)nc(Nc1cccc(Cl)c1)c1ccncc12 [CX4945] (first compound 10 µM, partner dose 2 µM), the cell count is 23.4%.
On to `CCCCCCCCc1ccc(CCC(N)(CO)CO)cc1` [fingolimod] + C[C@@H](Oc1cc(-c2cnn(C3CCNCC3)c2)cnc1N)c1c(Cl)ccc(F)c1Cl [Crizotinib] (first compound 10 µM, partner dose 1 µM), for which the cell count was 8.83%.
Take `CN(NC(=O)CC(=O)NN(C)C(=S)c1ccccc1)C(=S)c1ccccc1` + O=C(Nc1ccccc1)c1cc([N+](=O)[O-])ccc1Cl [GW9662] (first compound 0.03 µM, partner dose 10 µM): the cell count worked out at 34.3%.
Take `CC(C)(C)c1cnc(CSc2cnc(NC(=O)C3CCNCC3)s2)o1` + NCC(=O)Nc1ccc(-n2nc(C(F)(F)F)cc2-c2ccc3c(ccc4ccccc43)c2)cc1 [OSU03012] (first compound 0.05 µM, partner dose 5 µM): the cell count was found to be 64.6%.
The compound `NC(=O)c1ccc(N(C(N)=O)c2c(F)cccc2F)nc1-c1ccc(F)cc1F` + CCN(CC)CCCCNc1ncc2cc(-c3cc(OC)cc(OC)c3)c(NC(=O)NC(C)(C)C)nc2n1 [PD173074] (first compound 2 µM, partner dose 0.5 µM) yielded a cell count of 139%.
`CCCCCCCCc1ccc(CCC(N)(CO)CO)cc1` [fingolimod] + CC(=O)c1c(C)c2cnc(Nc3ccc(N4CCNCC4)cn3)nc2n(C2CCCC2)c1=O [palbociclib] (first compound 10 µM, partner dose 0.2 µM) came in with a cell count of 51.5%.
In turn, `CCCCCCCCc1ccc(CCC(N)(CO)CO)cc1` [fingolimod] + COc1ccc(-c2ccc3c(N4CCOCC4)nc(N4C[C@@H](C)O[C@@H](C)C4)nc3n2)cc1CO [KU0063794] (first compound 10 µM, partner dose 0.1 µM) returned a cell count of 26.8%.
`NC(=O)c1ccc(N(C(N)=O)c2c(F)cccc2F)nc1-c1ccc(F)cc1F` + Cc1ccc(NC(=O)c2cccc(N(C)C)c2)cc1NC(=O)c1ccc(O)cc1 [ZM336372] (first compound 2 µM, partner dose 10 µM) came in with a cell count of 133%.
For the compound `CCCCCCCCc1ccc(CCC(N)(CO)CO)cc1` [fingolimod] + CC(=O)O[C@@]12CO[C@@H]1C[C@H](O)[C@@]1(C)C(=O)[C@H](O)C3=C(C)[C@@H](OC(=O)[C@H](O)[C@@H](NC(=O)OC(C)(C)C)c4ccccc4)C[C@@](O)([C@@H](OC(=O)c4ccccc4)[C@H]21)C3(C)C [Docetaxel] (first compound 10 µM, partner dose 0.0005 µM), the cell count was found to be 31.4%.
Compound `CC(C)(C)c1cnc(CSc2cnc(NC(=O)C3CCNCC3)s2)o1` + O=C(O)C(=O)Nc1sc2c(c1C(=O)O)CCNC2 [TCS401] (first compound 0.05 µM, partner dose 8.33333 µM) yielded a cell count of 126%.
`CCc1ccc(CCOc2ccc(CC3SC(=O)NC3=O)cc2)nc1` (centres undefined) [pioglitazone] + N#Cc1c(O)c2c(-c3ccc(-c4ccccc4O)cc3)csc2[nH]c1=O [A769662] (first compound 10 µM, partner dose 10 µM) came in with a cell count of 128%.
Compound `CCCCCCCCc1ccc(CCC(N)(CO)CO)cc1` [fingolimod] + OCCn1cc(-c2cnc3nnn(Cc4ccc5ncccc5c4)c3n2)cn1 [PF04217903] (first compound 10 µM, partner dose 5 µM) displayed a cell count of 63.8%.
As to `Cc1ccc(NC(=O)c2cccc(N(C)C)c2)cc1NC(=O)c1ccc(O)cc1` + Cc1cc(N2CCOCC2)cc2[nH]c(-c3c(NC[C@@H](O)c4cccc(Cl)c4)cc[nH]c3=O)nc12 [BMS536924] (first compound 10 µM, partner dose 1 µM), the cell count was determined as 88.7%.
Then `COc1cc2c(Oc3ccc4[nH]c(C)cc4c3F)ncnc2cc1OCCCN1CCCC1` [cediranib] + Oc1nc(-c2ccc(C(F)(F)F)cc2)nc2c1CSCC2 [XAV939] (first compound 2 µM, partner dose 10 µM), with 155%; and `CCCCCCCCc1ccc(CCC(N)(CO)CO)cc1` [fingolimod] + N#Cc1c(O)c2c(-c3ccc(-c4ccccc4O)cc3)csc2[nH]c1=O [A769662] (first compound 10 µM, partner dose 10 µM), with 29.4%.
Take `CN(NC(=O)CC(=O)NN(C)C(=S)c1ccccc1)C(=S)c1ccccc1` + CCCCCCCCCCCC1=C(O)C(=O)C=C(O)C1=O [Embelin] (first compound 0.03 µM, partner dose 6 µM): the cell count is 37.4%.
For the compound `Cc1ccc(NC(=O)c2cccc(N(C)C)c2)cc1NC(=O)c1ccc(O)cc1` + CN(NC(=O)CC(=O)NN(C)C(=S)c1ccccc1)C(=S)c1ccccc1 [STA4783] (first compound 10 µM, partner dose 0.03 µM), the cell count worked out at 51.2%.
In turn, `CC(C)(C)c1cnc(CSc2cnc(NC(=O)C3CCNCC3)s2)o1` + O=S(=O)(c1ccccc1)N(CC(F)(F)F)c1ccc(C(O)(C(F)(F)F)C(F)(F)F)cc1 [T0901317] (first compound 0.05 µM, partner dose 7 µM) gave a cell count of 80%.
In turn, `CCCCCCCCc1ccc(CCC(N)(CO)CO)cc1` [fingolimod] + O=C1NC(=O)/C(=C/c2ccc(-c3ccc(F)cc3O)o2)S1 [AS252424] (first compound 10 µM, partner dose 5 µM) showed a cell count of 26.6%.
Then `COc1cc2c(Oc3ccc4[nH]c(C)cc4c3F)ncnc2cc1OCCCN1CCCC1` [cediranib] + CCN(CC)CCCCNc1ncc2cc(-c3cc(OC)cc(OC)c3)c(NC(=O)NC(C)(C)C)nc2n1 [PD173074] (first compound 2 µM, partner dose 0.5 µM), with 124%.
`CCCCCCCCc1ccc(CCC(N)(CO)CO)cc1` [fingolimod] + O=c1cc(-c2cccc3c2Sc2ccccc2S3)oc(N2CCOCC2)c1 [KU55933] (first compound 10 µM, partner dose 5 µM) had a cell count of 25.4%.
For the compound `Cc1ccc(NC(=O)c2cccc(N(C)C)c2)cc1NC(=O)c1ccc(O)cc1` + O=C(O)c1ccc(-c2c[nH]c3ncc(-c4ccccc4)cc23)cc1C1CCCC1 [GSK650394] (first compound 10 µM, partner dose 0.8 µM), the cell count is 87.4%.
